{"sequences": {"note": "Protein sequences, listed by entry. Tags and fused reporters are not part of them. Residues count along the entry.", "UniProt Q04206": "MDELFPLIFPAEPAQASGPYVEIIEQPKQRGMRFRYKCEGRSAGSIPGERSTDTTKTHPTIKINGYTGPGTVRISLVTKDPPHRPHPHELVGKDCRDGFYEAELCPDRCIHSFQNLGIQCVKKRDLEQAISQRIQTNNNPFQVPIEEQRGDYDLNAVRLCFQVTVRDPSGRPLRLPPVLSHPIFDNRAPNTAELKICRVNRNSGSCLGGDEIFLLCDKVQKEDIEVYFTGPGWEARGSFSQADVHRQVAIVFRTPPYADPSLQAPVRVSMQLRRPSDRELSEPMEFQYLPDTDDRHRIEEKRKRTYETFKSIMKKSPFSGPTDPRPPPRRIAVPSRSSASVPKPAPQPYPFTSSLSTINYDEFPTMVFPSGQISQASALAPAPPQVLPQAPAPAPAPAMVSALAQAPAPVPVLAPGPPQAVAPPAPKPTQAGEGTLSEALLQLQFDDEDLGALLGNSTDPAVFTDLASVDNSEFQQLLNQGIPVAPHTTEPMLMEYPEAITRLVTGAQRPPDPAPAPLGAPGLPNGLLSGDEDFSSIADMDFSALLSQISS", "UniProt P19838, residues 1-433": "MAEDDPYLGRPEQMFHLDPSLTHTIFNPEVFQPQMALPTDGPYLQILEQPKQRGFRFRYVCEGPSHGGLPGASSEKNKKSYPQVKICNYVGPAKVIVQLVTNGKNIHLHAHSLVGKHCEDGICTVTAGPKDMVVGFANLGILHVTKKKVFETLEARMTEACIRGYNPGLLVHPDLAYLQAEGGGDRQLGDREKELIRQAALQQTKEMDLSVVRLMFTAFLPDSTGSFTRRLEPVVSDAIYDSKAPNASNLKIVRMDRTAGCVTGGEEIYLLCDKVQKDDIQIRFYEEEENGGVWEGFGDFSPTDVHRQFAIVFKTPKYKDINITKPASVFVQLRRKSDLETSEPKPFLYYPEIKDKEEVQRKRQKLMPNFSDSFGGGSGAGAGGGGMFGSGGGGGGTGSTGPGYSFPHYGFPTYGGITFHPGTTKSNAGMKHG", "UniProt P52294": "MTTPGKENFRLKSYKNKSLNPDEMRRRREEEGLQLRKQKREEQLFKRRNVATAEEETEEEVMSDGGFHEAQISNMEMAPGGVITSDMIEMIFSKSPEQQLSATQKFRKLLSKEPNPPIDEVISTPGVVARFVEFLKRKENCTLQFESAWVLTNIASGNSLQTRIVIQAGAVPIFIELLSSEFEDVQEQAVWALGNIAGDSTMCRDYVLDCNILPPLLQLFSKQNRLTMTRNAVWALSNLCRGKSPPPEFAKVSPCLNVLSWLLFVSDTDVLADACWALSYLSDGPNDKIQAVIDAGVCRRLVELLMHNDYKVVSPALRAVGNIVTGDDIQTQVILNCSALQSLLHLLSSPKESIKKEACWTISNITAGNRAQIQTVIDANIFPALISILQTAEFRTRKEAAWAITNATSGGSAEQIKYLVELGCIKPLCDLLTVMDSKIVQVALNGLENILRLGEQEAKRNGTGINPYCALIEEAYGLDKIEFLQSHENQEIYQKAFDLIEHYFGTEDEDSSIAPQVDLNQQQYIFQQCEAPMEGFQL"}, "source": "paper PMC11696352", "molecules": {"B1": {"name": "NF-κB-repressing factor (NKRF), endogenous (protein, UniProt O15226 1-690)", "chain": "MEKILQMAEGIDIGEMPSYDLVLSKPSKGQKRHLSTCDGQNPPKKQAGSKFHARPRFEPVHFVASSSKDERQEDPYGPQTKEVNEQTHFASMPRDIYQDYTQDSFSIQDGNSQYCDSSGFILTKDQPVTANMYFDSGNPAPSTTSQQANSQSTPEPSPSQTFPESVVAEKQYFIEKLTATIWKNLSNPEMTSGSDKINYTYMLTRCIQACKTNPEYIYAPLKEIPPADIPKNKKLLTDGYACEVRCQNIYLTTGYAGSKNGSRDRATELAVKLLQKRIEVRVVRRKFKHTFGEDLVVCQIGMSSYEFPPALKPPEDLVVLGKDASGQPIFNASAKHWTNFVITENANDAIGILNNSASFNKMSIEYKYEMMPNRTWRCRVFLQDHCLAEGYGTKKTSKHAAADEALKILQKTQPTYPSVKSSQCHTGSSPRGSGKKKDIKDLVVYENSSNPVCTLNDTAQFNRMTVEYVYERMTGLRWKCKVILESEVIAEAVGVKKTVKYEAAGEAVKTLKKTQPTVINNLKKGAVEDVISRNEIQGRSAEEAYKQQIKEDNIGNQLLRKMGWTGGGLGKSGEGIREPISVKEQHKREGLGLDVERVNKIAKRDIEQIIRNYARSESHTDLTFSRELTNDERKQIHQIAQKYGLKSKSHGVGHDRYLVVGRKRRKEDLLDQLKQEGQVGHYELVMPQAN"}, "B2": {"name": "purified His-NKRF (protein, UniProt O15226 1-690)", "chain": "B1 chain"}, "B3": {"name": "GCLM (glutamate-cysteine ligase modifier subunit), endogenous (protein, UniProt P48507 1-274)", "chain": "MGTDSRAAKALLARARTLHLQTGNLLNWGRLRKKCPSTHSEELHDCIQKTLNEWSSQINPDLVREFPDVLECTVSHAVEKINPDEREEMKVSAKLFIVESNSSSSTRSAVDMACSVLGVAQLDSVIIASPPIEDGVNLSLEHLQPYWEELENLVQSKKIVAIGTSDLDKTQLEQLYQWAQVKPNSNQVNLASCCVMPPDLTAFAKQFDIQLLTHNDPKELLSEASFQEALQESIPDIQAHEWVPLWLLRYSVIVKSRGIIKSKGYILQAKRRGS"}}, "key": {"[1]": {"biological_target": "p65 (NF-κB/p65) (human (endogenous in HCT116 and 293T)) (UniProt Q04206)", "assay": "co-IP; p65 with p50 in control or GCLM-knockdown HCT116 or 293T cells overexpressing HA-tagged NKRF, oxaliplatin (40 μM, 24 h); which of the two was precipitated is not stated"}, "HA-tagged NKRF WT [2]": {"biological_target": "T1, HA-tagged NKRF WT (UniProt O15226)", "T1 sequence": "B1 chain", "assay": "co-IP; HA-tagged NKRF WT or truncated mutants (M1-M5) overexpressed in 293T or HCT116 cells (control or GCLM knock-down, oxaliplatin 40 μM, 24 h); anti-HA immunoprecipitation"}, "[3]": {"biological_target": "T2, Flag-tagged GCLM WT (glutamate-cysteine ligase modifier subunit) (UniProt P48507)", "T2 sequence": "B3 chain", "assay": "co-IP; anti-Flag immunoprecipitation from total lysate or cytoplasmic and nuclear fractions of 293T or HCT116 cells overexpressing Flag-tagged GCLM WT, GCLM-NLS or mutants; with or without oxaliplatin or importazole (40 μM, 24 h)"}, "[4]": {"biological_target": "T3, Flag-tagged GCLM T17E mutant (UniProt P48507)", "T3 sequence": "B3 chain with T17E", "assay": "co-IP; anti-Flag immunoprecipitation from total lysate or cytoplasmic and nuclear fractions of 293T or HCT116 cells overexpressing Flag-tagged GCLM WT, GCLM-NLS or mutants; with or without oxaliplatin or importazole (40 μM, 24 h)"}, "[5]": {"biological_target": "T4, GCLM (glutamate-cysteine ligase modifier subunit), endogenous (human (endogenous in HCT116 and 293T)) (UniProt P48507)", "T4 sequence": "B3 chain", "assay": "co-IP; endogenous proteins; anti-GCLM antibody or IgG with protein A/G beads overnight at 4 °C; cells with or without oxaliplatin, cisplatin or kinase inhibitors"}, "[6]": {"biological_target": "T4, GCLM (glutamate-cysteine ligase modifier subunit), endogenous (human (endogenous in HCT116 and 293T))", "assay": "condition: only with calf intestinal phosphatase (CIP) treatment; co-IP; GCLM immunoprecipitated from HCT116 cells treated with calf intestinal phosphatase (CIP), which resulted in GCLM dephosphorylation"}, "[7]": {"biological_target": "T2, Flag-tagged GCLM WT (glutamate-cysteine ligase modifier subunit)", "assay": "co-IP; anti-Flag immunoprecipitation from total lysate or cytoplasmic and nuclear fractions of 293T or HCT116 cells overexpressing Flag-tagged GCLM WT, GCLM-NLS or mutants; with or without oxaliplatin or importazole (40 μM, 24 h)", "remark": "listed apart in the source"}, "GCLM C193/194 A mutant": {"biological_target": "T5, GCLM C193/194 A mutant (UniProt P48507)", "T5 sequence": "B3 chain with C193A, C194A", "assay": "co-IP; anti-Flag immunoprecipitation from total lysate or cytoplasmic and nuclear fractions of 293T or HCT116 cells overexpressing Flag-tagged GCLM WT, GCLM-NLS or mutants; with or without oxaliplatin or importazole (40 μM, 24 h)"}, "[8]": {"biological_target": "T3, Flag-tagged GCLM T17E mutant", "assay": "co-IP; anti-Flag immunoprecipitation from total lysate or cytoplasmic and nuclear fractions of 293T or HCT116 cells overexpressing Flag-tagged GCLM WT, GCLM-NLS or mutants; with or without oxaliplatin or importazole (40 μM, 24 h)", "remark": "listed apart in the source"}, "[9]": {"biological_target": "T4, GCLM (glutamate-cysteine ligase modifier subunit), endogenous (human (endogenous in HCT116 and 293T))", "assay": "co-IP; endogenous proteins; anti-GCLM antibody or IgG with protein A/G beads overnight at 4 °C; cells with or without oxaliplatin, cisplatin or kinase inhibitors", "remark": "listed apart in the source"}, "[10]": {"biological_target": "T2, Flag-tagged GCLM WT (glutamate-cysteine ligase modifier subunit)", "assay": "proximity ligation; Duolink in situ PLA with anti-Flag-GCLM and anti-NKRF antibodies in 293T cells overexpressing Flag-tagged GCLM WT or nuclear GCLM (+NLS)"}, "purified GST-GCLM": {"biological_target": "T6, purified GST-GCLM (UniProt P48507)", "T6 sequence": "B3 chain", "assay": "pull-down; 20 µg GST-GCLM or GST control on Glutathione Sepharose 4B beads (1 h, 4 °C), 10 µg His-NKRF added for 2 h at 4 °C, washed with PBST five times, immunoblot; both purified"}, "HA-tagged NKRF WT [11]": {"biological_target": "T1, HA-tagged NKRF WT", "assay": "co-IP; HA-tagged NKRF WT or truncated mutants (M1-M5) overexpressed in 293T or HCT116 cells (control or GCLM knock-down, oxaliplatin 40 μM, 24 h); anti-HA immunoprecipitation", "remark": "listed apart in the source"}}, "note": "Where a chain is given by its changes, count along the chain named. Like-named read-outs stand apart in the source and are kept apart here. Results are given in words; binding and its absence hold for the method and conditions named. For some assays here: Binding seen in cells or lysates may run through a third protein. Some entries that bind do so weakly or less than the wild type. For some assays here: Sequences can lack the tags named with a protein."}
{"molecule": "p50 (NF-κB p50) (from UniProt P19838 1-433)", "values": [{"measurement": "binding", "setting": "[1]", "value": "binds"}]}
{"molecule": "p65 (NF-κB/p65) (from UniProt Q04206 1-551)", "values": [{"measurement": "binding", "setting": "HA-tagged NKRF WT [2]", "value": "binds"}]}
{"molecule": "importin α5 (also known as KPNA1), endogenous (from UniProt P52294 1-538)", "values": [{"measurement": "binding", "setting": "[3]", "value": "binds"}, {"measurement": "binding", "setting": "[4]", "value": "binds"}, {"measurement": "binding", "setting": "[5]", "value": "binds"}, {"measurement": "binding", "setting": "[6]", "value": "no binding"}]}
{"molecule": "B1", "values": [{"measurement": "binding", "setting": "[7]", "value": "binds"}, {"measurement": "binding", "setting": "GCLM C193/194 A mutant", "value": "binds"}, {"measurement": "binding", "setting": "[8]", "value": "binds"}, {"measurement": "binding", "setting": "[9]", "value": "binds"}, {"measurement": "binding", "setting": "[6]", "value": "no binding"}, {"measurement": "binding", "setting": "[10]", "value": "binds"}]}
{"molecule": "B2", "values": [{"measurement": "binding", "setting": "purified GST-GCLM", "value": "binds"}]}
{"molecule": "B3", "values": [{"measurement": "binding", "setting": "HA-tagged NKRF WT [11]", "value": "binds"}]}
